Assay results: paper PMC12624062
No constants are given. Whether binding was seen depends on the method and setting. In cells and extracts the contact can be indirect. Some results given as binding are weak or reduced against the parent protein; the word gives no strength.

By UniProt entry, the sequences of proteins in these tests, tags left out.
UniProt Q9JMB7: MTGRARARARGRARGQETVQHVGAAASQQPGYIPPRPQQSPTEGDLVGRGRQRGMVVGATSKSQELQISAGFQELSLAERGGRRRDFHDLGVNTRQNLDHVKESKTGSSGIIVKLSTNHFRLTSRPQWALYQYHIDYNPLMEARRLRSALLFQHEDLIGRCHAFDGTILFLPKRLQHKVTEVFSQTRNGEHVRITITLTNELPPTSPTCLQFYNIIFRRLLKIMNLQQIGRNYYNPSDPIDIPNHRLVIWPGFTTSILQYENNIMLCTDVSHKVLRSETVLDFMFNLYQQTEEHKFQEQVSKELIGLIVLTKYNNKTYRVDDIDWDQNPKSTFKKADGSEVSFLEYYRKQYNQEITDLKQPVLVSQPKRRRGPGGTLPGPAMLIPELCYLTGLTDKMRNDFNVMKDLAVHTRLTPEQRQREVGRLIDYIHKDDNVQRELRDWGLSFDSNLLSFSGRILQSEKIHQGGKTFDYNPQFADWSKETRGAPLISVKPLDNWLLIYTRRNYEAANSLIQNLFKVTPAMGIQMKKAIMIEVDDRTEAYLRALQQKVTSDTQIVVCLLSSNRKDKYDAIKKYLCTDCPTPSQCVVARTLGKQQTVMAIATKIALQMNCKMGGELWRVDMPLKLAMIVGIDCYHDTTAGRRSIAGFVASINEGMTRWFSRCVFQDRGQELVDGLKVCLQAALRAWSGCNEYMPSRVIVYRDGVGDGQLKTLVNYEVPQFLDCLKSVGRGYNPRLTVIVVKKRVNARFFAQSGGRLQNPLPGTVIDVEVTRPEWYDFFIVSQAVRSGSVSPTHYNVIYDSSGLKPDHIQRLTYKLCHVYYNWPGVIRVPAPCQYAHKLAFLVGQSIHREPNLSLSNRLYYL

Legend:
Experiment in all cases: co-IP; 293T cells transiently transfected with tagged mouse proteins; lysis in 150 mM NaCl, 50 mM Tris-HCl pH 7.4, 1% Triton X-100, 1 mM EDTA; Protein A/G agarose beads and antibodies overnight at 4 °C; washes with 300 mM NaCl; Western blot for Flag, HA, GFP; some panels with the methyltransferase inhibitor MTA
[1] = molecular target: T1, ASZ1 (mouse) (UniProt Q8VD46)
T1 sequence: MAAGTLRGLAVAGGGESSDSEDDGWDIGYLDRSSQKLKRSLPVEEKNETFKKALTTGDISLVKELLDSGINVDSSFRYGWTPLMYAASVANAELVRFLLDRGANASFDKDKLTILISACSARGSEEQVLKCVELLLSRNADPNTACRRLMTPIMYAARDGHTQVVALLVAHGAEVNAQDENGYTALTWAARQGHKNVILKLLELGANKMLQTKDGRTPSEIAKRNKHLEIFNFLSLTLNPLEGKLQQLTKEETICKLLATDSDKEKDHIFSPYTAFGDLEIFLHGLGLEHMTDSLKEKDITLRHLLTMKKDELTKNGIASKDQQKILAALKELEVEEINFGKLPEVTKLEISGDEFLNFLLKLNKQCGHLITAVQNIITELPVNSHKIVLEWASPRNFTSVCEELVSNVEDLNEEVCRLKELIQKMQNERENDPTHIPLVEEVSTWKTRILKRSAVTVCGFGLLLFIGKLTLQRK

[2] = molecular target: T2, GPAT2 (mouse) (UniProt Q14DK4)
T2 sequence: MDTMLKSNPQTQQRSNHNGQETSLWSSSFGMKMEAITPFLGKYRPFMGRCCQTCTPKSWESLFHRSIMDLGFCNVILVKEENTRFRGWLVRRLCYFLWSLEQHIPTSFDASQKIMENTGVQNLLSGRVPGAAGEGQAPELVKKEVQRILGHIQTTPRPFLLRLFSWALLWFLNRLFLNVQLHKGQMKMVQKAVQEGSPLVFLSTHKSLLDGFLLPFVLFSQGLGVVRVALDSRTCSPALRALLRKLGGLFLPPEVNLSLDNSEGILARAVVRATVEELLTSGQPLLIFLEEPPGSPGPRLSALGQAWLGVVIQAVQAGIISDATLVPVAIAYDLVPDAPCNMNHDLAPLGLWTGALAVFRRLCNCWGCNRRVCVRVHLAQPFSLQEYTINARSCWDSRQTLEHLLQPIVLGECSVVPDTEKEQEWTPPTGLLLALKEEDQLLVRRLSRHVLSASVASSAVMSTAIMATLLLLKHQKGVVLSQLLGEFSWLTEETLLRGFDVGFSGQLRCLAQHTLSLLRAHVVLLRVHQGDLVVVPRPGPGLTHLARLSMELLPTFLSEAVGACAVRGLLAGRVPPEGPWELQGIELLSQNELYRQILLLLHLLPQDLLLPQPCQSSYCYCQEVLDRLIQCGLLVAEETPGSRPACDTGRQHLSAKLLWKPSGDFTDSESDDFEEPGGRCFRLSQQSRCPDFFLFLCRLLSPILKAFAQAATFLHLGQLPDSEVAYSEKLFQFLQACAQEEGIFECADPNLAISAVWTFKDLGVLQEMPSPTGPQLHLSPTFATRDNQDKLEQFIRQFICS

[3] = molecular target: T3, TDRD1 (mouse) (UniProt Q99MV1)
T3 sequence: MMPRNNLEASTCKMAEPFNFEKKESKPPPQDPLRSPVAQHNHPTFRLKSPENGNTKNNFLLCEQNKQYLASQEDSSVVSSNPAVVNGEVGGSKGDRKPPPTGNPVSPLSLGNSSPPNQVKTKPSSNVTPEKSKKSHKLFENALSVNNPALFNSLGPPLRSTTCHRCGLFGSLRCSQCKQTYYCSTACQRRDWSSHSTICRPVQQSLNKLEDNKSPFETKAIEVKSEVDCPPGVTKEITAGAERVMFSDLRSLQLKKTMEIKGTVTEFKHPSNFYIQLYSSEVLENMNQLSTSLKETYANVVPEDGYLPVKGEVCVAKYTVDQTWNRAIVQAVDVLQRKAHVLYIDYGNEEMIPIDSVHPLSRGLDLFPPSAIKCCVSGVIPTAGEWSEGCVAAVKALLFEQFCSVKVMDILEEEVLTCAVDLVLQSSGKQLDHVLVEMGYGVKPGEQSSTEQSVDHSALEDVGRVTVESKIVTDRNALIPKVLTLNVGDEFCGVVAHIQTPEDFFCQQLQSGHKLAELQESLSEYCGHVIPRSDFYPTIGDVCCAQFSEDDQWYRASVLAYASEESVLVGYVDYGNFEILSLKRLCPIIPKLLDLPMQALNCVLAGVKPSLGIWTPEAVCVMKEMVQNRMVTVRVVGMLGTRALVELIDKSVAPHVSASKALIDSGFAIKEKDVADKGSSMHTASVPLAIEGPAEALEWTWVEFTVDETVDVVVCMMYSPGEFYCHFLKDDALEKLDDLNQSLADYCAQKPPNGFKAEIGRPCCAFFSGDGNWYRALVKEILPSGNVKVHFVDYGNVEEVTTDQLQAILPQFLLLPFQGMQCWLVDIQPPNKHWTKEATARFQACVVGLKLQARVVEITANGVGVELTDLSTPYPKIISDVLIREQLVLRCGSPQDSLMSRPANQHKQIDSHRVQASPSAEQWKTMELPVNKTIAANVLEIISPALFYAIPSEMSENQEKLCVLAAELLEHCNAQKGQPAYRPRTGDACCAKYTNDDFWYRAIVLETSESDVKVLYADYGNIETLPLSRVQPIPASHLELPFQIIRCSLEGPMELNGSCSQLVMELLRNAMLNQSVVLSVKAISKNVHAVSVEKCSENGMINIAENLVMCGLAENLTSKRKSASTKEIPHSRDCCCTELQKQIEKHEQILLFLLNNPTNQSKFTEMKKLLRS

[4] = molecular target: T4, mitoPLD (mouse) (UniProt Q5SWZ9)
T4 sequence: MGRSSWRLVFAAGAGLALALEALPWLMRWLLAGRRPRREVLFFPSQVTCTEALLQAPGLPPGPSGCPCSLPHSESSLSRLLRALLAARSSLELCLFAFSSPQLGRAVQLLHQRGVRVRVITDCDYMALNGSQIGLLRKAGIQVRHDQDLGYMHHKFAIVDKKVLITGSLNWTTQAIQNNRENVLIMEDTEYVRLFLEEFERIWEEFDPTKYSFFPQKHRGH

[5] = molecular target: T5, TDRKH (mouse) (UniProt Q80VL1)
T5 sequence: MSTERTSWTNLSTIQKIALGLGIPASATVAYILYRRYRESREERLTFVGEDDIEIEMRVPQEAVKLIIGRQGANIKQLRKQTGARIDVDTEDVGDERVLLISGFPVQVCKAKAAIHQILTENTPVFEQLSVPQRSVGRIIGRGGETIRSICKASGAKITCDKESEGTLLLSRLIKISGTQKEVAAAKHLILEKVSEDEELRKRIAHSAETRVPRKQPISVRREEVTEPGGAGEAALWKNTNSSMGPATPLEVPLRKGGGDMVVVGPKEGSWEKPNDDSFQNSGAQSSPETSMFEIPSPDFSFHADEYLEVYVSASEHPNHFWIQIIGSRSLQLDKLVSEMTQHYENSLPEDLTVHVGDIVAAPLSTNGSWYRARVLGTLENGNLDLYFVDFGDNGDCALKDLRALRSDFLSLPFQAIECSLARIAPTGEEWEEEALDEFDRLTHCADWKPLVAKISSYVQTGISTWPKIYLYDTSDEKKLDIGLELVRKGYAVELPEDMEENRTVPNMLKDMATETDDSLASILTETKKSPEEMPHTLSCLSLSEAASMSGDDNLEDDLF

binding [1]: no binding
binding [2]: no binding
binding [3]: binds
binding [4]: no binding
binding [5]: binds
Substance: PIWIL1 (from UniProt Q9JMB7 1-862)
